According to PMC4336329 (PLoS ONE, 2015):
Among all 310,000 compounds or so, about 14,000 (4.5%) showed an effect of 50% or more. The effect is printed as a negative number. The list shows a part of the results.

Molecular target: human ether-à-go-go-related gene (hERG) potassium channel (human, UniProt Q12809)
Test: primary screen, population patch clamp on CHO cells stably expressing hERG
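Also: peak tail current of the secondary pulse compared with the same well before compound.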

Sequence of human ether-à-go-go-related gene (hERG) potassium channel (Q12809 whole entry, looked up): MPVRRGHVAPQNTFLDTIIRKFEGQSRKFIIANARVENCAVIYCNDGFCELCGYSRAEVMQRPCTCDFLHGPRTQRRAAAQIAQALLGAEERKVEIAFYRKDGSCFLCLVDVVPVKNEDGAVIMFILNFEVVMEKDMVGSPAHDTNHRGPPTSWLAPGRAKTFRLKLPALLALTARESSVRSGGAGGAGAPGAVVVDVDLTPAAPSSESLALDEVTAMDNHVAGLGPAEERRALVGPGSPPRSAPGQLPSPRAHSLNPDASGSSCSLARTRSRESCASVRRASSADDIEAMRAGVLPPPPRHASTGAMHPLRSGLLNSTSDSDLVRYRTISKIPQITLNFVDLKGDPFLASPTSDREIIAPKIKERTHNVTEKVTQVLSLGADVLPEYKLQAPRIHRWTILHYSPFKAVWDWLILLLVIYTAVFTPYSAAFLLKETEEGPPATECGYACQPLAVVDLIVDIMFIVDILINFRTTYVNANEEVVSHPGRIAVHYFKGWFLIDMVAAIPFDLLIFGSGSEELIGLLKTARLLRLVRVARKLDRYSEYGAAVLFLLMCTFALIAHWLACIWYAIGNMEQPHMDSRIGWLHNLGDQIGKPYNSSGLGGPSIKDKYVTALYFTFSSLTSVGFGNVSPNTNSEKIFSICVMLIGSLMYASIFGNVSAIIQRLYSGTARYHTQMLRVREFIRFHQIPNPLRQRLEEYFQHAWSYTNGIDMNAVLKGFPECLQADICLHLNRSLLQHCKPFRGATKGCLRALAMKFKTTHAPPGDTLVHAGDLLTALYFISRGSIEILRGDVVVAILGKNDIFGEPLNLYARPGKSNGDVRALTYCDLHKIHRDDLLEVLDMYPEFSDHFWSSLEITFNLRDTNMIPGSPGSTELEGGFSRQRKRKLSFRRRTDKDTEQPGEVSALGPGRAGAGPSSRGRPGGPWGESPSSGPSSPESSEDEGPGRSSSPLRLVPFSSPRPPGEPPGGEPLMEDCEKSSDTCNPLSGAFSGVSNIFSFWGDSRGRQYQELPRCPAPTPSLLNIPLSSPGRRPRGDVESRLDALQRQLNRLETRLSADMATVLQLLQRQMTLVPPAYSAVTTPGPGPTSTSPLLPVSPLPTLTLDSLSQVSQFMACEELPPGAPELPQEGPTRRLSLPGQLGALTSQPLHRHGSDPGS

| Compound | hERG current change (%, negative = inhibition) at 10uM [%] |
| --- | --- |
| Cc1c(N=C2NC(=O)/C(=C/c3cccc([N+](=O)[O-])c3)S2)c(=O)n(-c2ccccc2)n1C | -13.4 |
| O=C(Cn1c(CC(=O)N2CCCC2)nc2ccccc21)NCc1ccccc1 | -7.45 |
| CC(C)(C)OC(=O)N1CCCC1C(=O)N1CCc2ccccc21 (stereo not shown) | 14.5 |
| CCCCCCNC(=O)c1cn(CC)c2cc(N3CCN(C)CC3)c(F)cc2c1=O | -3.97 |
| CCOc1cc(/C=C(\C#N)C(N)=O)ccc1OCc1c(C)no[n+]1[O-] | -0.204 |
| CC(C)CNC(=O)c1cccc(C(=O)NCC(C)C)c1 | -0.427 |
| CC(C)Cn1c(N2CCN(C(=O)/C=C/c3ccccc3)CC2)nc2ccccc21 | -69.1 |
| CC(C(=O)NCc1ccccc1Cl)N1C(=O)c2ccccc2C1=O (stereo not shown) | -12.9 |
| CCOC(=O)N1CCN(S(=O)(=O)N2CCCC(C(=O)NC(C)c3ccccc3)C2)CC1 (stereo not shown) | 3.52 |
| O=C(c1ccc(NS(=O)(=O)c2ccc(F)cc2)cc1)N1CCN(c2ccccc2O)CC1 | -4.67 |
| CCN(CC)C(=O)c1cn(-c2cccc(OC)c2)c(=O)c2ccccc12 | 9.66 |
| CCCOc1ccc(C(=O)Nc2ccc(N(C)C)cc2)cc1 | 3.58 |
| O=C1C(Nc2ccccc2)=C(NS(=O)(=O)c2ccccc2)C(=O)c2ccccc21 | -3.21 |
| COc1ccc(-c2nc(-c3ccncc3)no2)cc1OC | -10.8 |
| C=CCn1c(=O)c(C(C)=O)cn(N(C)c2ncc(C(F)(F)F)cc2Cl)c1=O | -2.57 |
| Cn1cc(C(=O)NC2CCCCCCC2)c(=O)c2cc(S(=O)(=O)N3CCCC3)ccc21 | 10.4 |
| COCc1nnc(NC(=O)C(C)C)s1 | 6.69 |
| CCNc1nc(NCC)nc(NS(=O)(=O)c2ccc(N)cc2)n1 | 22.7 |
| Cc1cccc(OC(C)C(=O)OCC(=O)Nc2sccc2C(N)=O)c1 (stereo not shown) | -6.98 |
| C/C(=N\NC(=O)c1cccc(N/N=C(\C)c2cc(O)ccc2O)c1)c1cc(O)ccc1O | 9.41 |
| O=C(Nc1ncc([N+](=O)[O-])s1)c1ccco1 | 17.5 |
| Cc1ccc(S(=O)(=O)Nc2nc(C)c(NC(=O)OCCCl)s2)cc1 | -6.07 |

| Compound | hERG current change (%, negative = inhibition) at 10uM [%] |
| --- | --- |
| COc1cc(NC(=O)c2cc3c(C)nc4ccccc4c3o2)cc(OC)c1OC | 0.269 |
| O=C(CCN1C(=O)c2ccccc2C1=O)Nc1cccc(S(=O)(=O)NC2=NCCC2)c1 | 30.4 |
| Cc1c(Cl)ccc2c1NC(=O)C21NC(CCC(N)=O)[C@H]2C(=O)N(c3ccc(Cl)cc3)C(=O)[C@H]21 (stereo partly shown) | 7.5 |
| CCCn1c(C)c(C(=O)OCC)c(O)c(-c2ccccc2)c1=O | 19.5 |
| CCOc1cccc(C2/C(=C(/O)c3ccc4c(c3)CC(C)O4)C(=O)C(=O)N2Cc2cccnc2)c1 (stereo not shown) | 17.9 |
| COc1ccccc1NC(=O)C1CCCN(c2cc(C)nc3ncnn23)C1 (stereo not shown) | -20.8 |
| O=C(CSc1nc2ccccc2c(=O)n1-c1ccccc1)c1c[nH]c2ccccc12 | -3.27 |
| CCN(CC)CCNC(=S)Nc1ccc2nc(N3CCN(CC)CC3)cc(C)c2c1 | 11.2 |
| COc1cc2c(cc1OC)CN(c1nc(CN3CCOCC3)nc3sc4c(c13)CCC(C)C4)CC2 (stereo not shown) | -67.5 |
| Nc1ccc2nc(-c3ccccc3)sc2c1 | 23.4 |
| O=c1cc(CN2CCN(S(=O)(=O)c3ccccc3)CC2)nc2sccn12 | -2.25 |
| CN(C)S(=O)(=O)Oc1ccc(Cl)cc1C(=O)Nc1ccc(F)cc1F | -3.01 |
| CCC(C)n1ncn(-c2ccc(N3CCN(c4ccc(OC)cc4)CC3)cc2)c1=O (stereo not shown) | -1.99 |
| S=C(Nc1ccc(Oc2ccc(NC(=S)NC3CCCCC3)cc2)cc1)NC1CCCCC1 | 17.6 |
| Cc1nc2ccc(NC(=O)/C=C/C(=O)O)cc2nc1C | 22.2 |
| COc1ccc(N2C(=O)CC(NNC(=O)c3ccc(Br)s3)C2=O)cc1 (stereo not shown) | 14.1 |
| O=C(Nc1ccccc1Cl)Nc1cccnc1Cl | 22.1 |
| Cc1ccc(-c2cccc(CN3CCN(C4CCN(C(C)C)CC4)C(CCO)C3)c2)o1 (stereo not shown) | -59.4 |
| O=C(NC1CCCCCCC1)c1c(Cl)cccc1Cl | 7.78 |
| Cc1ccc(S(=O)(=O)CC(=O)c2ccccc2[N+](=O)[O-])cc1 | 24.9 |
| COc1ccccc1/C=C/C(=O)OCC(=O)Nc1ccccc1Sc1ccccc1 | -1.93 |
| COc1cccc(CNC(=O)CN(C)S(=O)(=O)c2ccc(Br)s2)c1 | -15.5 |

| Compound | hERG current change (%, negative = inhibition) at 10uM [%] |
| --- | --- |
| CCOc1cc(CNS(=O)(=O)c2ccc3c(c2)CC(=O)N3C)cc(OCC)c1OCC | -34.2 |
| COCCn1c(=S)[nH]c2cc(C(=O)NC(C)C)ccc2c1=O | -4.4 |
| CN1C(=O)c2ccccc2Sc2ccc(C(=O)O)cc21 | 8.7 |
| O=C(C1=NOC(CNc2ncc(C(F)(F)F)cc2Cl)C1)N1CCOCC1 (stereo not shown) | -9.41 |
| CC(=O)N1c2ccc(S(=O)(=O)N3CCC(C(=O)NCc4ccc(C)cc4)CC3)cc2CC1C (stereo not shown) | -8.16 |
| COc1ccccc1C(=O)Nc1c2c(nn1-c1cccc(C)c1C)CS(=O)(=O)C2 | -40.3 |
| COCCn1c(SCC(=O)N2CCc3ccccc3C2)nc2cc(Cl)ccc2c1=O | -25.4 |
| O=C(CN1C(=O)c2cccc3cccc1c23)N1CCN(Cc2ccc3c(c2)OCO3)CC1 | -30.1 |
| COc1cc(O)c(C(CC(=O)N2CCCC2)c2ccc3c(c2)OCO3)c(OC)c1 (stereo not shown) | 6.4 |
| Cn1c(=O)oc2cc(S(=O)(=O)N3CCC(C(=O)NCc4cccs4)CC3)ccc21 | -11 |
| COc1cc(NC(=O)CSc2nnnn2-c2ccccc2)cc(OC)c1OC | -0.308 |
| Cc1nc2sc3c(=O)[nH]nnc3c2c(C)c1Br | 15.5 |
| Cc1cc(C(=O)COC(=O)c2n[nH]c3ccccc23)c(C)n1CC1CCCO1 (stereo not shown) | -9.56 |
| Cc1nn(C)c(Cl)c1CN1CCN(C2CCCC2)C(CCO)C1 (stereo not shown) | -0.161 |
| COc1ccc(-n2c(Cn3nnc4ccccc43)n[nH]c2=S)cc1 | 16.6 |
| COc1ccccc1C(=O)NC(=O)COC(=O)c1nc(Cl)ccc1Cl | -3.23 |
| CC1(C)CC(=O)c2sc(NC(=O)CN3CCOCC3)nc2C1 | -0.0618 |
| COc1ccc(NS(=O)(=O)c2cccc(C(=O)NCc3cccnc3)c2)cc1 | -30.6 |
| O=C(ONC1=NCCCCC1)c1c(F)cccc1F | -3.7 |
| Cc1cc(C(F)F)n2ncc(C(=O)NCCc3ccccc3Cl)c2n1 | -56.7 |
| Cn1c(C=O)c(-c2ccc3cc[nH]c3c2)c2ccccc21 | 14.7 |
| Cc1ccc(C(C)C)c(OCC(=O)Nc2cccc(S(=O)(=O)NC3=NCCCCC3)c2)c1 | -24.2 |

| Compound | hERG current change (%, negative = inhibition) at 10uM [%] |
| --- | --- |
| O=[N+]([O-])c1ccc(NCCNCCOc2nonc2-c2ccccc2)c([N+](=O)[O-])c1 | -68.6 |
| CCCCCSc1nnc(-c2ccccc2N)c(=O)[nH]1 | 3.8 |
| CCN(CC(=O)Nc1c(F)cccc1F)C(=O)/C=C/c1ccc2c(c1)OCO2 | -1.26 |
| O=C(CSc1ccc(C(F)(F)F)cc1[N+](=O)[O-])Nc1ccc2ccccc2c1 | 1.99 |
| Cc1ccc(NC(=O)c2ccccc2N2C(=O)C3C4C=CC(C5CC45)C3C2=O)cc1C (stereo not shown) | 2.91 |
| O=[N+]([O-])c1ncccc1OCc1ccc(-c2ccccc2)cc1 | 27.1 |
| CNCC(O)COc1ccccc1 (stereo not shown) | -5.69 |
| CC(C)Oc1ccc(CN2CCC(n3nccc3NC(=O)C3CC3)CC2)cc1 | -79.4 |
| Cc1nn(-c2ccccc2)c(Cl)c1C1C(C#N)=C(N)Oc2n[nH]c(C)c21 (stereo not shown) | -7.18 |
| O=[N+]([O-])c1c(C(Cl)Cl)nn(-c2ccccc2)c1N1CCCC1 | 1.65 |
| Cc1c(C(=O)Nc2cccnc2)oc2ccc(Br)cc12 | 5.09 |
| N#CC(C#N)=c1ccc2c(c1)N1C3=C(CCCC3)CC3CCCCC31N=2 (stereo not shown) | -2.33 |
| Cc1ccc(Cl)cc1N1CCN(C(=O)C(=O)N2CCCCC2)CC1 | -7.25 |
| CC1(C)CC2(CCO1)OC(=O)CC2C(=O)Nc1ccc(Cl)cc1[N+](=O)[O-] (stereo not shown) | -3.18 |
| COc1cc(/C=C2/CCC/C(=C\c3cc(O)c(OC)c(Cl)c3)C2=O)cc(Cl)c1O | 13.7 |
| CCC1Oc2ccc(C)cc2N(CC(=O)N2CCOCC2)C1=O (stereo not shown) | 4.58 |
| O=c1[nH]c(=O)n(-c2ccccc2Cl)c(O)c1C=NCCN1CCCCC1 | 6.09 |
| C=C(C)CNC(=S)N/N=C/c1ccccc1OCC(=O)O | 16.2 |
| O=C(CCc1ccc(S(=O)(=O)NCCc2ccccc2)cc1)Nc1ccc2c(c1)OCCO2 | 3.63 |
